Results as given in patent US10299477B2 (priority 2015, dated 2019).

What follows are molecules tested on Colletotrichum orbiculare. Conditions: in vivo.
For `CCn1c(-c2c(F)cc(F)cc2F)c(-c2cc(F)ccc2F)ccc1=O` [Compound 424], the “Test H (control value class)” value was “H (key: H shows more than 50% of control values; L shows 50% or less of control values)”.
With `CCn1c(-c2c(F)cc(F)cc2F)c(-c2cc(F)ccc2F)cc(Cl)c1=O` [Compound 425] the “Test H (control value class)” value was “H (key: H shows more than 50% of control values; L shows 50% or less of control values)”.
`Cn1c(-c2c(F)cc(F)cc2F)c(-c2cc(F)ccc2F)ccc1=O` [Compound 426] was tested, and the “Test H (control value class)” value was “H (key: H shows more than 50% of control values; L shows 50% or less of control values)”.
In the case of `Cn1c(-c2c(F)cc(F)cc2F)c(-c2cc(F)ccc2F)cc(Cl)c1=O` [Compound 427], the “Test H (control value class)” value is reported as “H (key: H shows more than 50% of control values; L shows 50% or less of control values)”.
`O=c1ccc(-c2ccc(Cl)cc2F)c(-c2c(F)cccc2F)n1CC(F)F` [Compound 428] was tested, and the “Test H (control value class)” value was “H (key: H shows more than 50% of control values; L shows 50% or less of control values)”.
In the case of `CCn1c(-c2c(F)cc(OC)cc2F)c(-c2ccccc2Cl)ccc1=O` [Compound 430], the “Test H (control value class)” value is reported as “H (key: H shows more than 50% of control values; L shows 50% or less of control values)”.
In the case of `Cn1c(-c2c(F)cc(F)cc2F)c(-c2ccccc2Cl)ccc1=O` [Compound 431], the “Test H (control value class)” value is reported as “H (key: H shows more than 50% of control values; L shows 50% or less of control values)”.
In the case of `Cn1c(-c2c(F)cc(F)cc2F)c(-c2ccccc2Cl)cc(Cl)c1=O` [Compound 432], the “Test H (control value class)” value is reported as “H (key: H shows more than 50% of control values; L shows 50% or less of control values)”.
`COc1cc(F)c(-c2c(-c3ccccc3Cl)ccc(=O)n2C)c(F)c1` [Compound 433] was tested, and the “Test H (control value class)” value was “H (key: H shows more than 50% of control values; L shows 50% or less of control values)”.
For `COc1cc(F)c(-c2c(-c3ccccc3Cl)cc(Cl)c(=O)n2C)c(F)c1` [Compound 435], the “Test H (control value class)” value was “H (key: H shows more than 50% of control values; L shows 50% or less of control values)”.
`CN1C(=O)CCC(c2cc(F)cc(F)c2F)=C1c1c(F)cccc1F` [Compound 437] was tested, and the “Test H (control value class)” value was “H (key: H shows more than 50% of control values; L shows 50% or less of control values)”.
With `CCn1c(-c2c(F)cccc2F)c(-c2cc(F)cc(F)c2F)ccc1=O` [Compound 438] the “Test H (control value class)” value was “H (key: H shows more than 50% of control values; L shows 50% or less of control values)”.
In the case of `Cn1c(-c2c(F)cccc2F)c(-c2cc(F)cc(F)c2F)ccc1=O` [Compound 439], the “Test H (control value class)” value is reported as “H (key: H shows more than 50% of control values; L shows 50% or less of control values)”.
`CCn1c(-c2c(F)cccc2F)c(-c2cc(F)cc(F)c2F)cc(Cl)c1=O` [Compound 440] was tested, and the “Test H (control value class)” value was “H (key: H shows more than 50% of control values; L shows 50% or less of control values)”.
In the case of `CCn1c(-c2c(F)cccc2F)c(-c2cc(F)cc(F)c2F)cc(Br)c1=O` [Compound 441], the “Test H (control value class)” value is reported as “H (key: H shows more than 50% of control values; L shows 50% or less of control values)”.
`Cn1c(-c2c(F)cccc2F)c(-c2cc(F)cc(F)c2F)cc(Cl)c1=O` [Compound 442] was tested, and the “Test H (control value class)” value was “H (key: H shows more than 50% of control values; L shows 50% or less of control values)”.
For `Cn1c(-c2c(F)cccc2F)c(-c2cc(F)cc(F)c2F)cc(Br)c1=O` [Compound 443], the “Test H (control value class)” value was “H (key: H shows more than 50% of control values; L shows 50% or less of control values)”.
`CCn1c(-c2c(F)cccc2F)c(-c2cc(Cl)ccc2Cl)ccc1=O` [Compound 444] was tested, and the “Test H (control value class)” value was “H (key: H shows more than 50% of control values; L shows 50% or less of control values)”.
`Cn1c(-c2c(F)cccc2F)c(-c2cc(Cl)ccc2Cl)ccc1=O` [Compound 446] was tested, and the “Test H (control value class)” value was “H (key: H shows more than 50% of control values; L shows 50% or less of control values)”.
For `Cn1c(-c2c(F)cccc2F)c(-c2cc(Cl)ccc2Cl)cc(Cl)c1=O` [Compound 447], the “Test H (control value class)” value was “H (key: H shows more than 50% of control values; L shows 50% or less of control values)”.
With `O=c1ccc(-c2cc(Cl)ccc2Cl)c(-c2c(F)cccc2F)n1CC(F)F` [Compound 448] the “Test H (control value class)” value was “H (key: H shows more than 50% of control values; L shows 50% or less of control values)”.
For `O=c1c(Cl)cc(-c2cc(Cl)ccc2Cl)c(-c2c(F)cccc2F)n1CC(F)F` [Compound 449], the “Test H (control value class)” value was “H (key: H shows more than 50% of control values; L shows 50% or less of control values)”.
`CCn1c(-c2c(F)cccc2F)c(-c2cc(Cl)cc(Cl)c2Cl)cc(Cl)c1=O` [Compound 451] was tested, and the “Test H (control value class)” value was “H (key: H shows more than 50% of control values; L shows 50% or less of control values)”.
With `Cn1c(-c2c(F)cccc2F)c(-c2cc(Cl)cc(Cl)c2Cl)ccc1=O` [Compound 452] the “Test H (control value class)” value was “H (key: H shows more than 50% of control values; L shows 50% or less of control values)”.
With `Cn1c(-c2c(F)cccc2F)c(-c2cc(Cl)cc(Cl)c2Cl)cc(Cl)c1=O` [Compound 453] the “Test H (control value class)” value was “H (key: H shows more than 50% of control values; L shows 50% or less of control values)”.
`O=c1ccc(-c2cc(Cl)cc(Cl)c2Cl)c(-c2c(F)cccc2F)n1CC(F)F` [Compound 454] was tested, and the “Test H (control value class)” value was “H (key: H shows more than 50% of control values; L shows 50% or less of control values)”.
`O=c1c(Cl)cc(-c2cc(Cl)cc(Cl)c2Cl)c(-c2c(F)cccc2F)n1CC(F)F` [Compound 455] was tested, and the “Test H (control value class)” value was “H (key: H shows more than 50% of control values; L shows 50% or less of control values)”.
With `C#CCN1C(=O)CCC(c2cc(OC)ccc2Cl)=C1c1c(F)cccc1F` [Compound 456] the “Test H (control value class)” value was “H (key: H shows more than 50% of control values; L shows 50% or less of control values)”.
`Cc1cc(-c2cc(F)cc(F)c2F)c(-c2c(F)cccc2F)n(C)c1=O` [Compound 457] was tested, and the “Test H (control value class)” value was “H (key: H shows more than 50% of control values; L shows 50% or less of control values)”.
`CCn1c(-c2c(F)cccc2F)c(-c2cc(F)cc(F)c2F)cc(C)c1=O` [Compound 459] was tested, and the “Test H (control value class)” value was “H (key: H shows more than 50% of control values; L shows 50% or less of control values)”.
In the case of `COc1ccc(Cl)c(-c2ccc(=O)n(CC#N)c2-c2c(F)cccc2F)c1` [Compound 460], the “Test H (control value class)” value is reported as “L (key: H shows more than 50% of control values; L shows 50% or less of control values)”.
`CCn1c(-c2c(F)cc(F)cc2F)c(-c2cc(F)ccc2Cl)cc(C)c1=O` [Compound 461, 5-(2-chloro-5-fluorophenyl)-1-ethyl-3-methyl-6-(2,4,6-trifluorophenyl)pyridine-2(1H)-one] was tested, and the “Test H (control value class)” value was “H (key: H shows more than 50% of control values; L shows 50% or less of control values)”.
For `COc1ccc(Cl)c(-c2cc(Cl)c(=O)n(CC#N)c2-c2c(F)cccc2F)c1` [Compound 463], the “Test H (control value class)” value was “H (key: H shows more than 50% of control values; L shows 50% or less of control values)”.
`CCn1c(-c2c(F)cc(F)cc2F)c(-c2cc(F)cc(F)c2F)ccc1=O` [Compound 464] was tested, and the “Test H (control value class)” value was “H (key: H shows more than 50% of control values; L shows 50% or less of control values)”.
For `CCn1c(-c2c(F)cc(F)cc2F)c(-c2cc(F)cc(F)c2F)cc(Cl)c1=O` [Compound 465], the “Test H (control value class)” value was “H (key: H shows more than 50% of control values; L shows 50% or less of control values)”.
In the case of `Cn1c(-c2c(F)cc(F)cc2F)c(-c2cc(F)cc(F)c2F)ccc1=O` [Compound 466], the “Test H (control value class)” value is reported as “H (key: H shows more than 50% of control values; L shows 50% or less of control values)”.
